Measured values published in patent US20180214612A1 (INSTITUTE OF GENETICS AND DEVELOPMENTAL BIOLOGY CHINESE …, published 2018).

What was measured:
[1] = biological target: T1, Type I collagen prepared from rat tail tendon (rat, UniProt P02454 152-1207; P02466 86-1125); assay: modified ELISA on plate coated with rat tail type I collagen, anti-polyhistidine detection, Scatchard analysis
T1 construct: Tissue-derived collagen solution coated on 96-well plates; the two chains are those of natural type I collagen; also called collagen gel

[2] = biological target: 3D collagen membrane scaffold prepared from bovine skin (bovine); assay: release assay from 3D bovine collagen membrane loaded with 1.0 nmol protein, PBS, 37° C on a rocker, released SDF-1α measured by ELISA kit
[3] = biological target: T1, Type I collagen prepared from rat tail …; assay: modified ELISA on a plate coated with rat tail type I collagen; detection with anti-polyhistidine primary antibody and alkaline phosphatase-conjugated secondary antibody, OD 405 nm [1D]

T1 sequence (P02454 152-1207 limits assumed, chain 1 of 2): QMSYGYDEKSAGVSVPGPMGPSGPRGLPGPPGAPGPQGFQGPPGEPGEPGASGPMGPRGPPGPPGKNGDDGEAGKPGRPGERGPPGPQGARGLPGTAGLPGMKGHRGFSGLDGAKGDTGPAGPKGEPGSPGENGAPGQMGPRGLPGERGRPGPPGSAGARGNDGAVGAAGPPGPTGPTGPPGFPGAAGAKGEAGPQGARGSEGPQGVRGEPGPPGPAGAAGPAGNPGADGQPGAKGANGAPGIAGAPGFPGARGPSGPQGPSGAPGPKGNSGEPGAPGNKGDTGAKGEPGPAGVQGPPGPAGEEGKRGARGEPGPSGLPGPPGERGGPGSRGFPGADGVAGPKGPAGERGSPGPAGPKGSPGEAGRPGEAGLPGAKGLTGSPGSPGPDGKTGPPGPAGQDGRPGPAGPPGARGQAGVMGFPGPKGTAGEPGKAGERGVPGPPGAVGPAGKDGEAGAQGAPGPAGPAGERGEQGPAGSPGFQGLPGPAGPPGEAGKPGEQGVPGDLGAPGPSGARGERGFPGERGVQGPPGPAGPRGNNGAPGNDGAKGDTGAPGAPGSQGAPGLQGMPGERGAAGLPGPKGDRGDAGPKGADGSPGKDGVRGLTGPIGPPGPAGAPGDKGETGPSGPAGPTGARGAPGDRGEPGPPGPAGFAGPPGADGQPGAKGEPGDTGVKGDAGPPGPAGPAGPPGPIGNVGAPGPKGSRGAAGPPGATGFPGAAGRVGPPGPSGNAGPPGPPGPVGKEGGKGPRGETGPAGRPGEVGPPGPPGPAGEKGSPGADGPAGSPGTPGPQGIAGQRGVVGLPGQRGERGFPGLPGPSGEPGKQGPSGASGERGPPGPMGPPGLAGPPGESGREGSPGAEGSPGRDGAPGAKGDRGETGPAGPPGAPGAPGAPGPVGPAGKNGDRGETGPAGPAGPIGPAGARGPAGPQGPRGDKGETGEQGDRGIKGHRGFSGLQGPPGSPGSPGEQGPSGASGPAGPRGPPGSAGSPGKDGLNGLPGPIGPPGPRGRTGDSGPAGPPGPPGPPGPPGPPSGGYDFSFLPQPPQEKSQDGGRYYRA
T1 sequence (P02466 86-1125 limits assumed, chain 2 of 2, further chain): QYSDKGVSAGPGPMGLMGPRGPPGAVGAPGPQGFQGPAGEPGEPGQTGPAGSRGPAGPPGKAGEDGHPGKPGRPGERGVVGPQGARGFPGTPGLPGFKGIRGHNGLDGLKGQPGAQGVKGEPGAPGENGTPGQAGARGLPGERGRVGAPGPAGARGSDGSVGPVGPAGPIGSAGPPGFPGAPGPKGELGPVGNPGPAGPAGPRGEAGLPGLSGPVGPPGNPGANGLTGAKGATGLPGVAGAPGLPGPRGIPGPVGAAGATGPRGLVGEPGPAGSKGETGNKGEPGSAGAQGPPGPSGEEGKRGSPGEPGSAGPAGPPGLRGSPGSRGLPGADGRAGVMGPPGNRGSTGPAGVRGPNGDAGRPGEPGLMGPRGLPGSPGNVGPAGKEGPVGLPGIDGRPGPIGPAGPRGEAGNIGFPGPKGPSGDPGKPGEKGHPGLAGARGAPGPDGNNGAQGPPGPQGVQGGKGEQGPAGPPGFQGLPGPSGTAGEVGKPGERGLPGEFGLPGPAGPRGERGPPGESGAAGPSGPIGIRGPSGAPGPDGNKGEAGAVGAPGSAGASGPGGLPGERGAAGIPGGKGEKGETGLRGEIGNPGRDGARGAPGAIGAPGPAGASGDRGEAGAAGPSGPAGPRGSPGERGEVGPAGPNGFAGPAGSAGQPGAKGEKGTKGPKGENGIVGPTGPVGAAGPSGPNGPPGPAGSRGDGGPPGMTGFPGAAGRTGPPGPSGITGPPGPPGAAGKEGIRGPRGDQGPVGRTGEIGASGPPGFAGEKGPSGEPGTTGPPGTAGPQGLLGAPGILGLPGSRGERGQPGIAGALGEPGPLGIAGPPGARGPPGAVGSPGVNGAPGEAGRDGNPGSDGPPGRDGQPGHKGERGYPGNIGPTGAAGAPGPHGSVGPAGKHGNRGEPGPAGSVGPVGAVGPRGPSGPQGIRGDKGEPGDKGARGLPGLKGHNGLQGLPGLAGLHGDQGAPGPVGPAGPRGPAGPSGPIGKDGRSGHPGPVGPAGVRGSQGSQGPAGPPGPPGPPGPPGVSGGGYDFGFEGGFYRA

B1: CBD-SDF-1α (fusion of native human SDF-1α, linker and collagen-binding domain at the C-terminal, with 6×His tag) (ligand)
chain: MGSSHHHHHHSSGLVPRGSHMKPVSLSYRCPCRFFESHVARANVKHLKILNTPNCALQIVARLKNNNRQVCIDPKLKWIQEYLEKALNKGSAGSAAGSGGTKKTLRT
notes: also called CBD-SDF-1α fusion protein with His-tag
- Kd [1]: 254 nM
- percent retained on collagen scaffold at day 9 [2]: ~50%
- EC50 (read off the curve) [3]: ~1000 nM
